{
  "source": "patent EP0307553B1",
  "about": "“Modified splenopentines, their process of preparation and their use” (priority 1987, dated 1989)",
  "test_system": "Influenzavirus A/PR/8/34",
  "assay_type": "in vivo, Balb/c-Mäusen",
  "note": "Read-outs that look alike come from different tables or passages of the source.",
  "data": [
    {"substance": "(N^α-Acetyl-arginyl)(N^ε-acetyl-lysyl)glutamylvalyltyrosin [DAc-SP5]", "values": [
      {"measurement": "Sterberate nach 6 Tagen in %", "setting": "Infektionsdosis (EID₅₀) 10², therapy during infection: 0,5 mg/kg s.c. daily over 5 days from day of infection", "result": "33,3%"},
      {"measurement": "Sterberate nach 6 Tagen in %", "setting": "Infektionsdosis (EID₅₀) 10³, therapy during infection: 0,5 mg/kg s.c. daily over 5 days from day of infection", "result": "66,6%"},
      {"measurement": "Sterberate nach 6 Tagen in %", "setting": "Infektionsdosis (EID₅₀) 10¹, therapy during infection: 0,5 mg/kg s.c. daily over 5 days from day of infection", "result": "33,3%"},
      {"measurement": "Sterberate nach 6 Tagen in %", "setting": "Infektionsdosis (EID₅₀) 10⁴, before infection: 0,5 mg/kg s.c. 3 x per week during 2 weeks before infection", "result": 100, "unit": "%"},
      {"measurement": "Sterberate nach 6 Tagen in %", "setting": "Infektionsdosis (EID₅₀) 10⁴, therapy during infection: 0,5 mg/kg s.c. daily over 5 days from day of infection", "result": 100, "unit": "%"},
      {"measurement": "Sterberate nach 6 Tagen in %", "setting": "Infektionsdosis (EID₅₀) 10⁵, before infection: 0,5 mg/kg s.c. 3 x per week during 2 weeks before infection", "result": 100, "unit": "%"},
      {"measurement": "Sterberate nach 6 Tagen in %", "setting": "Infektionsdosis (EID₅₀) 10⁵, therapy during infection: 0,5 mg/kg s.c. daily over 5 days from day of infection", "result": 100, "unit": "%"}
    ]}
  ]
}
